Screen size: about 190,000 compounds; about 520 (0.27%) were called active. The shares of active, inactive and inconclusive entries below differ from those in the screen.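 How the source made its calls: active means GTP binding activity at least 20 points away from the 100% control level, either lower or higher; inconclusive means compound flagged as likely green fluorescent, judged across all proteins; inactive means the rest.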
biological target: Ras-related C3 botulinum toxin substrate 1 (Homo sapiens) (UniProt P63000); test: wildtype Rac1 GTP binding modulators, primary screen, biochemical, GST-Rac1 beads, flow cytometry, multiplex (AID 757); details: fluorescent GTP binding, at 10 µM, actives lie on both sides, 0 = cold GTP competed, 100 = untreated

SMILES | GTP binding activity (% of control)
COc1cc(NS(=O)(=O)c2ccc(NC(=S)NC(=O)c3sc4ccccc4c3Cl)cc2)nc(OC)n1 | inconclusive: 83%

— PubChem BioAssay AID757 (NMMLSC, 2007)
